{"source": "PubChem BioAssay (NCI)", "system": "NCI-H322M lung", "experiment": "NCI tumour cell line growth inhibition, 48 h", "note": "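Briefly, cells in 96-well plates were exposed to five compound concentrations for 48 h, and endpoints were estimated by linear interpolation. GI50 = concentration required for 50% inhibition of growth. TGI marks complete inhibition of growth.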", "data": [{"compound": "Nc1ncc(-c2ccc3ncnc(N4CCc5cc(F)c(Cl)cc54)c3c2)cc1CO", "values": [{"measurement": "GI50", "value": 310, "unit": "nM"}, {"measurement": "TGI", "value": 2860, "unit": "nM"}]}]}
